# Results from PubChem BioAssay (Tox21).
# Where “and” joins values, the source holds several entries; their conditions need not be identical. Equal values may be shown once. Where a structure was tested more than once in an assay, its records may differ in their call. Calls of active or inactive are those of the source. Unless noted, calls follow the shape of the dose curve; as a rule, active = well fitted curve in the direction sought with a large enough effect in the repeat runs; inconclusive = weak or mixed curves; inactive = no such curve, though single readings can be large; an effect the other way counts as inactive or inconclusive.
# Key:
# [1] = qHTS assay for identifying genotoxic compounds that show differential cytotoxicity against isogenic chicken DT40 cell lines with known DNA damage response pathways - Rad54/Ku70 mutant cell line (AID 743015); conditions: DT40 Rad54/Ku70 mutant viability, CellTiter-Glo, 40 h; activity change, negative = cytotoxicity: at 66.8 µM (top of the series); also: nearly all actives have a fitted effect of over 60% in size
# [2] = qHTS assay to identify small molecule antagonists of the estrogen receptor alpha (ER-alpha) signaling pathway using the BG1 cell line (AID 743080; calls by dose curve;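 also: BG1 cells stimulated with 17beta-estradiol alongside compound; nearly all actives have a fitted effect of over 25% in size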; as to activity change, negative = inhibition: % is scaled to controls: 0 for no effect and ±100 for the full control effect); conditions: BG1Luc4E2 ERE-luciferase antagonist mode, luminescence; activity change, negative = inhibition: at 70.3 µM (top of the series) unless noted
# Procedure, shortened: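 Endogenous full-length ER-alpha in BG1-Luc-4E2 cells drives a stably integrated 4×ERE luciferase gene; compounds were tested against 17beta-estradiol over 21.5 h, with luminescence and multiplexed viability fluorescence recorded.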
# [3] = qHTS assay to identify small molecule antagonists of the androgen receptor (AR) signaling pathway - cell viability counter screen (AID 743033; also: nearly all actives have a fitted effect of over 45% in size; as to activity change, negative = cytotoxicity: % is scaled to controls: 0 for no effect and ±100 for the full control effect); conditions: AR-bla HEK293 viability, CellTiter-Glo luminescence, 16 h; activity change, negative = cytotoxicity: at 58.5 µM (top of the series)
# [4] = target: Androgen receptor (Homo sapiens) (UniProt P10275); test: qHTS assay to identify small molecule antagonists of the androgen receptor (AR) signaling pathway (AID 743035; active = well fitted inhibition curve with a large enough effect in the signal ratio in the repeat runs, not every such curve was filed as active; inconclusive = weak or mixed curves, or effect the other way; inactive = no such curve, though single readings can be large or run the other way; the % refers to the signal ratio; as to activity change, negative = inhibition: % is scaled to controls: 0 for no effect and ±100 for the full control effect); conditions: HEK293 AR-UAS-bla, R1881-stimulated, beta-lactamase FRET, 16 h; activity change, negative = inhibition: at 58.5 µM (top of the series) unless noted
# UniProt P10275, sequence (P10275 whole entry, looked up): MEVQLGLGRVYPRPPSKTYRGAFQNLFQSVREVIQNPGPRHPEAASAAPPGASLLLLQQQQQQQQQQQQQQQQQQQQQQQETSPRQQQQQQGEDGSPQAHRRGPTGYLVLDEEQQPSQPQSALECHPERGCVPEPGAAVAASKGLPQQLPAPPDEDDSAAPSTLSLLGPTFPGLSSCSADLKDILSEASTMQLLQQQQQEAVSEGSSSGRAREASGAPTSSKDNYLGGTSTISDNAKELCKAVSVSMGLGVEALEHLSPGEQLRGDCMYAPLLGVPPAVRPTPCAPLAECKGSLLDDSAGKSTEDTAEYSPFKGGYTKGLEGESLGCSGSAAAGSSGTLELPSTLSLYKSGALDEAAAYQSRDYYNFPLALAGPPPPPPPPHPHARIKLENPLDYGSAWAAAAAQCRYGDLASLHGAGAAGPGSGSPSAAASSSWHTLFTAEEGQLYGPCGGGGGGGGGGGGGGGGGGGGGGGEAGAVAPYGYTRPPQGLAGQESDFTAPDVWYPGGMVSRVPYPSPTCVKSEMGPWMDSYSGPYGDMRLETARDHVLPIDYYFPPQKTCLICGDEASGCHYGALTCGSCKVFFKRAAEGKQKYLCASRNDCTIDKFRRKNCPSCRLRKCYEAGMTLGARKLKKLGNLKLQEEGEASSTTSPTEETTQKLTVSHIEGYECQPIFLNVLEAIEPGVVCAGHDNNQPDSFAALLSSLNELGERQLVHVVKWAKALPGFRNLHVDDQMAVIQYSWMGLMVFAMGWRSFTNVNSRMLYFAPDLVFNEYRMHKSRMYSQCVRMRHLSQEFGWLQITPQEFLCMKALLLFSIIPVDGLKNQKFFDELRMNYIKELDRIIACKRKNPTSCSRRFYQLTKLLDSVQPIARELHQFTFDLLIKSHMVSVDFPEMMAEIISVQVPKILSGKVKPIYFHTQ
# Procedure, shortened: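 Fluorescence from a beta-lactamase FRET substrate (LiveBLAzer B/G, 2 h, room temperature) measured inhibition of R1881-stimulated signaling in GeneBLAzer AR-UAS-bla HEK293 cells exposed to compound for 16 h at 37C.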
# [5] = target: Androgen receptor (Homo sapiens) (UniProt P10275); test: qHTS assay to identify small molecule agonists of the androgen receptor (AR) signaling pathway (AID 743036; active = well fitted activation curve with a large enough effect in the signal ratio in the repeat runs, with a control signal flat, not every such curve was filed as active; inconclusive = weak or mixed curves, or effect the other way; inactive = no such curve, though single readings can be large or run the other way; the % refers to the signal ratio); conditions: HEK293 AR-UAS-bla GripTite, beta-lactamase FRET ratio, 16 h; activation: at 62.4 µM (top of the series) unless noted
# Procedure, shortened: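 HEK293 cells stably carrying a UAS-driven beta-lactamase reporter (GeneBLAzer AR-UAS-bla-GripTite) were plated at 2,000 cells/well, rested 4 h at 37C, then exposed to compounds in DMSO for 16 h. LiveBLAzer B/G FRET substrate was added for 2 h at room temperature; fluorescence read.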
# [6] = qHTS assay to identify small molecule antagonists of the thyroid receptor (TR) signaling pathway - cell viability counter screen (AID 743064); conditions: GH3.TRE-Luc viability, CellTiter-Fluor, 24 h; activity change, negative = cytotoxic: at 70.3 µM (top of the series) unless noted; also: nearly all actives have a fitted effect of over 50% in size
# Procedure, shortened: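 GH3.TRE-Luc rat pituitary cells carrying a TRE-luciferase reporter were treated with compound plus 1 nM T3 (final) for 23.5 h at 37 °C. Viability was then read in the same wells by CellTiter-Fluor fluorescence after a further 30 min.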
# [7] = qHTS assay to identify small molecule antagonists of the thyroid receptor (TR) signaling pathway (AID 743065); also: nearly all actives have a fitted effect of over 55% in size
# Procedure, shortened: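 GH3.TRE-Luc rat pituitary cells (two TREs driving luciferase) were dosed with compound, then stimulated with 1 nM T3 (final) for 23.5 h at 37 C. ONE-Glo luminescence was the read-out, with CellTiter-Fluor fluorescence as the cytotoxicity counter-screen.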
# [8] = target: Estrogen receptor (Homo sapiens) (UniProt P03372); test: qHTS assay to identify small molecule antagonists of the estrogen receptor alpha (ER-alpha) signaling pathway (AID 743069; active = well fitted curve in the direction sought with a large enough effect in the signal ratio in the repeat runs, not every such curve was filed as active; inconclusive = weak or mixed curves, or effect the other way; inactive = no such curve, though single readings can be large or run the other way; the % refers to the signal ratio; as to activity, negative = inhibition: % is scaled to controls: 0 for no effect and ±100 for the full control effect); conditions: HEK293 ER-alpha-UAS-bla, beta-lactamase ratio, antagonist mode; activity, negative = inhibition: at 69.4 µM (top of the series) unless noted
# UniProt P03372, sequence (P03372 whole entry, looked up): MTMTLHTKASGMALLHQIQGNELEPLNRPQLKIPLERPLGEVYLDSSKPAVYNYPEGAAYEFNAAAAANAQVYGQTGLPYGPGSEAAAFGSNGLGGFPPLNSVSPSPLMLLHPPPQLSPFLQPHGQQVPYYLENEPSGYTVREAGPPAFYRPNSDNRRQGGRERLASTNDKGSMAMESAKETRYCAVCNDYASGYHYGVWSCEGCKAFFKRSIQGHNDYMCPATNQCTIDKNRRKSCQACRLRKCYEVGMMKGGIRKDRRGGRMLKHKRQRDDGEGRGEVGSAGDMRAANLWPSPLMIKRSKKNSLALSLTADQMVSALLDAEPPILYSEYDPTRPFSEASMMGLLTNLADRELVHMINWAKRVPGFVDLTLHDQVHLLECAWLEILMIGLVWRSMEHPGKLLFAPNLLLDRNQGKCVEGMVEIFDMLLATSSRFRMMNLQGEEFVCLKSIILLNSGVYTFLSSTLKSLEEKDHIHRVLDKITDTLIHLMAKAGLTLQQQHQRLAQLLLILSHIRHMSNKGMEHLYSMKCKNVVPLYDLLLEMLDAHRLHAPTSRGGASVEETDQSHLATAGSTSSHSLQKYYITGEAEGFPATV
# Procedure, shortened: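 Reporter cells (ER-alpha-bla, HEK293 background) are conditioned overnight in stripped-serum medium (2% charcoal-stripped FBS). Compound and 17beta-estradiol exposure runs 18 hr at 37C, 5% CO2.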
# [9] = qHTS assay to identify aromatase inhibitors - cell viability counter screen (AID 743084); conditions: MCF-7 aro ERE viability, CellTiter-Fluor, 24 h; activity change, negative = cytotoxicity: at 70.3 µM (top of the series);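 also: cells stimulated with testosterone during compound exposure; nearly all actives have a fitted effect of over 55% in size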
# [10] = qHTS assay to identify small molecule antagonists of the androgen receptor (AR) signaling pathway using the MDA cell line - cell viability counter screen (AID 743041; also: nearly all actives have a fitted effect of over 45% in size); conditions: MDA-kb2 viability, CellTiter-Fluor, 16 h, cells co-treated with R1881 androgen agonist; viability change, negative = cytotoxic: at 70.3 µM (top of the series) unless noted
# Procedure, shortened: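 Same-well cytotoxicity was assessed by CellTiter-Fluor in MDA-kb2 AR-luc cells after 16 h of compound treatment under R1881 agonism.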
# [11] = qHTS assay to identify small molecule antagonists of the estrogen receptor alpha (ER-alpha) signaling pathway - cell viability counter screen (AID 743074; calls by dose curve;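 also: HEK293 cells carrying ER-alpha-UAS-bla reporter stimulated with 17beta-estradiol; nearly all actives have a fitted effect of over 45% in size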)
# [12] = qHTS assay to identify small molecule antagonists of the estrogen receptor alpha (ER-alpha) signaling pathway using the BG1 cell line - cell viability counter screen (AID 743081);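 also: compound given together with 17beta-estradiol as the ER stimulus; nearly all actives have a fitted effect of over 45% in size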
# [13] = target: Androgen receptor (Homo sapiens) (UniProt P10275); test: qHTS assay to identify small molecule agonists of the androgen receptor (AR) signaling pathway using the MDA cell line (AID 743040; also: nearly all actives have a fitted effect of over 20% in size); conditions: MDA-kb2 AR-luc cells, MMTV luciferase, 16 h; activity change: at 70.3 µM (top of the series), hits give high values unless noted
# Procedure, shortened: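 Human breast carcinoma MDA-kb2 reporter cells (MMTV-luc, AR/GR elements) were treated for 16 h at 37C in 0% CO2 following a 5 h settling period. Signal was quantified by ONE-Glo luminescence.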
# [14] = target: Estrogen receptor (Homo sapiens) (UniProt P03372); test: qHTS assay to identify small molecule agonists of the estrogen receptor alpha (ER-alpha) signaling pathway (AID 743075; calls by dose curve)
# [15] = target: Estrogen receptor (Homo sapiens) (UniProt P03372); test: qHTS assay to identify small molecule agonists of the estrogen receptor alpha (ER-alpha) signaling pathway using the BG1 cell line (AID 743079); conditions: BG1Luc4E2 cells, ERE-luciferase agonist, 22 h; activation: at 70.3 µM (top of the series) unless noted; also: nearly all actives have a fitted effect of over 20% in size
# Aromatase (Homo sapiens) = Aromatase (Homo sapiens) (UniProt P11511); test: qHTS assay to identify aromatase inhibitors (AID 743083); also: nearly all actives have a fitted effect of over 55% in size
# UniProt P11511, sequence (P11511 whole entry, looked up): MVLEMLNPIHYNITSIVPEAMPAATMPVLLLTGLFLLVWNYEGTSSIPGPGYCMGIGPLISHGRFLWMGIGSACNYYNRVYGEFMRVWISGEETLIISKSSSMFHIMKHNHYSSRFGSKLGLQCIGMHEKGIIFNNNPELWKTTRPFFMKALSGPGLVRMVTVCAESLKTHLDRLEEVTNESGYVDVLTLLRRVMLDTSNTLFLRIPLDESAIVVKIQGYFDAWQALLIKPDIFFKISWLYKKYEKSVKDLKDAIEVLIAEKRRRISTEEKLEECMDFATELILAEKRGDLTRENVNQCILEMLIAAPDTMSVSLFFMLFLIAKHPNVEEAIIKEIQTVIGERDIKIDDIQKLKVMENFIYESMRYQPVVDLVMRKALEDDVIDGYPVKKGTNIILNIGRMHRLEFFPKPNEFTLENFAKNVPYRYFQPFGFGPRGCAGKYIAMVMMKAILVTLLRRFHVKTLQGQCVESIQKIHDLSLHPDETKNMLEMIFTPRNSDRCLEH
# [16] = target: Androgen receptor (Homo sapiens) (UniProt P10275); test: qHTS assay to identify small molecule antagonists of the androgen receptor (AR) signaling pathway using the MDA cell line (AID 743042; also: nearly all actives have a fitted effect of over 55% in size)
# Procedure, shortened: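 MDA-kb2 breast carcinoma cells carrying MMTV-luciferase (AR/GR responsive) were co-treated with compounds and the agonist R1881 for 16 h at 37C. Inhibition read as ONE-Glo luminescence; CellTiter-Fluor fluorescence measured in parallel for cytotoxicity.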
# [17] = test system: thyroid hormone receptor (rat, GH3 cells); test: qHTS assay to identify small molecule agonists of the thyroid receptor (TR) signaling pathway (AID 743066; calls by dose curve); conditions: GH3.TRE-Luc cells, TR agonist luciferase, 24 h; activation: at 83.9 µM (top of the series) unless noted
# Potency is read from the fitted curve at half-maximal effect; tags tell the direction and shape of the fitted curve or compound fluorescence and quenching.
smiles,measurement,setting,value
O=C1CCc2cc(OCCCCc3nnnn3C3CCCCC3)ccc2N1,Potency,[1],inconclusive: 33.5 µM [cytotoxic]
same,"activity change, negative = inhibition",[2],inconclusive: -8%
O=C(Oc1ccccc1)c1ccccc1C(=O)Oc1ccccc1,Potency,[3],"inconclusive: 54.9 µM [cytotoxic, single point]"
same,Potency,[4],active: 49 µM
same,Potency,[5],"inconclusive: 4.36 µM [rising, full curve, poor fit]"
same,Potency,[6],"inconclusive: 68.6 µM [cytotoxic, single point]"
same,Potency,[7],inconclusive: 68.6 µM [inhibitor]
same,"activity, negative = inhibition",[8],inconclusive: 18%
same,Potency,[2],"inconclusive: 77 µM [rising, single point]"
same,Potency,[9],"inconclusive: 54.5 µM [cytotoxic, partial curve]"
CC(=O)Oc1cccc2c1C(=O)c1c(OC(C)=O)cc(C(=O)O)cc1C2=O,Potency,[3],inactive
same,"activity change, negative = inhibition",[4],inconclusive: 2.05%
same,Potency,[5],inconclusive: 23.9 µM [single point]
same,Potency,[10],"inconclusive: 26.6 µM [cytotoxic, partial curve, poor fit]"
same,Potency,[6],"inconclusive: 29.8 µM [rising, partial curve, poor fit]"
O=C(O)COCC(=O)O,Potency,[1],inactive
same,Potency,[11],"inconclusive: 49.3 µM [rising, partial curve, poor fit]"
O=[N+]([O-])c1ccc2ncccc2c1,Potency,[1],inactive
same,Potency,[11],inactive
CCOC(=O)C(C)O (stereo not given),Potency,[1],inactive
same,Potency,[12],"inconclusive: 70.8 µM [rising, single point]"
COCc1c(C(C)C)nc(C(C)C)c(/C=C/[C@@H](O)C[C@@H](O)CC(=O)O)c1-c1ccc(F)cc1,Potency,[3],"inconclusive: 0.0095 µM [cytotoxic, full curve, poor fit]"
same,Potency,[4],"inconclusive: 0.535 µM [rising, full curve, poor fit]"
same,activation,[5],inconclusive: -23.9%
same,Potency,[13],active: 13.3 µM
same,Potency,[8],"inconclusive: 8.49 µM [fluorescent, partial curve]"
same,Potency,[14],"inconclusive: 10.7 µM [fluorescent, partial curve]"
same,Potency,[15],active: 11.9 µM
same,Potency,[2],"inconclusive: 2.37 µM [rising, full curve]"
same,Potency,Aromatase (Homo sapiens),"inconclusive: 106 nM [inhibitor, full curve]"
CC(C)c1c(C(=O)Nc2ccccc2)c(-c2ccccc2)c(-c2ccc(F)cc2)n1CC[C@@H](O)C[C@@H](O)CC(=O)O,Potency,[3],"inconclusive: 5.4 nM [cytotoxic, full curve, poor fit] and inconclusive: 21.1 µM [cytotoxic]"
same,Potency,[10],"inconclusive: 71.9 µM [cytotoxic, partial curve, poor fit]"
same,Potency,[6],active: 57.1 µM
same,Potency,[7],"inconclusive: 5.25 µM [inhibitor, partial curve]"
same,Potency,Aromatase (Homo sapiens),"inconclusive: 18.8 µM [inhibitor, partial curve] and inconclusive: 2.09 µM [inhibitor, full curve] and inconclusive: 5.71 µM [inhibitor, partial curve, poor fit]"
C=CC(C)(O)CCC=C(C)C (stereo not given),Potency,[1],inconclusive: 68.6 µM [cytotoxic]
same,Potency,[12],inactive
C=C(C)C(=O)OCCN(CC)CC,Potency,[3],inactive
same,Potency,[4],"inconclusive: 21.8 µM [rising, single point]"
same,Potency,[16],inactive
same,Potency,[6],"inconclusive: 19.3 µM [rising, partial curve, poor fit]"
COc1c(C)c2c(c(O)c1C/C=C(\C)CCC(=O)OCCN1CCOCC1)C(=O)OC2,Potency,[3],"inconclusive: 0.477 µM [cytotoxic, full curve]"
same,Potency,[4],active: 0.674 µM
same,activation,[5],inconclusive: 0.21%
same,Potency,[6],active: 1.68 µM
same,Potency,[8],active: 3.38 µM [inconclusive]
same,Potency,[14],"inconclusive: 2.39 µM [inhibitor, partial curve]"
same,Potency,[2],"inconclusive: 0.75 µM [rising, full curve]"
CC(=O)Oc1ccc([N+](=O)[O-])cc1CCl,Potency,[3],inactive
same,Potency,[10],active: 54.5 µM
same,Potency,[6],active: 30.6 µM
same,Potency,[8],"inconclusive: 6.16 µM [activator, full curve]"
same,Potency,[12],active: 61.1 µM
COc1cc2c3cc1Oc1cc(ccc1O)C[C@@H]1c4c(cc(OC)c(O)c4Oc4ccc(cc4)C[C@@H]3N(C)CC2)CC[N+]1(C)C,Potency,[3],inactive
COc1ccc(S(=O)(=O)N2C(=O)[C@@](c3ccccc3OC)(N3C[C@H](O)C[C@H]3C(=O)N(C)C)c3cc(Cl)ccc32)c(OC)c1,Potency,[3],inconclusive: 49 µM [cytotoxic]
same,Potency,[4],active: 17.4 µM
same,Potency,[5],"inconclusive: 0.436 µM [activator, single point]"
same,Potency,[16],"inconclusive: 68.6 µM [inhibitor, single point]"
same,Potency,[6],active: 34.4 µM
same,Potency,[17],"inconclusive: 30.6 µM [inhibitor, partial curve, poor fit]"
same,Potency,[8],active: 43.6 µM [inconclusive]
same,Potency,[11],inactive
same,Potency,[15],"inconclusive: 13.7 µM [inhibitor, single point]"
same,"activity change, negative = inhibition",[2],inconclusive: -28.2%
same,Potency,[12],"inconclusive: 4.33 µM [cytotoxic, single point]"
